The other results are listed elsewhere or left out.
B1: chr19:16212804:16212805:+_ENSG00000167460_ENST00000300933|hu_mus|hu_hu_hu_mus_False|8_38 (ssRNA)
RNA: GGGAGUUCUACAGUCCGACGAUCAACAAUUCUGGAGUGAAGGAAAGAUGUAACAUGGAACAGCAUUAAAGCUCAGUCAGAAGGCACAUGGGCAACAAUGACUAUUUCAGCAUUCUCGCUUGGAAUGUGCUUGAGAAAUCUGUUCAACAGAGGAUUGAGCAUCA
B2: chr5:146798188:146798189:-_ENSG00000113657_ENST00000343218|hu_mus|FALSE|FALSE (ssRNA)
RNA: GGGAGUUCUACAGUCCGACGAUCCUUCCCGUUGGCCUCGAUGGUCUUCACACCUCCGGGGACAAUCAGAUUGUCUCCAAUUUGCUUUAUUAAGCCAUCCUCCAUGUAAAUAUCAGCAUAAAAGGACUGAUCAUCAUUGACGAUCAACAGAGGAUUGAGCAUCA
B3: chr20:57609950:57609951:-_ENSG00000101166_ENST00000355937|hu_mus|motif|central (ssRNA)
RNA: GGGAGUUCUACAGUCCGACGAUCGAUCUUUUGUUUAGAUCAAAAGUCACAGCCUUACCCCACCUCAUUAAAAAAAAAGAUCGGCCGGAAAUAAUUGUGUCUUUUAAAUAACAAAUAAUAUGAUGCCAGCUUGAGAGUCCUGGACAACAGAGGAUUGAGCAUCA
B4: chr3:9412954:9412955:+_ENSG00000134077_ENST00000452837|hu_mus|hu_hu_hu_mus_False|58_58 (ssRNA)
RNA: GGGAGUUCUACAGUCCGACGAUCGGUUGAUAUCUCUUCUUUGAUGGCUGGAUUUUCAUAAUAGUCCAAGAUAUGUGAAUCUAAAGCGCUGCUGGCAUGCUUUUUCUUACCAUCUUUCUCAUCUGCUUUGUCUCCUUGUCCACACAACAGAGGAUUGAGCAUCA
B5: chr11:108043965:108043966:-_ENSG00000149308_ENST00000278612|hu_hu|FALSE|FALSE (ssRNA)
RNA: GGGAGUUCUACAGUCCGACGAUCAGAAUUAUCUUGGCAAUUUGAUAGCUGUGACAUAACUGGUUCUAACACAUUAAUUUCUAUUUUACUCUUGUGAACUUCACUAGAAUCUGAUGACUUGGAACCAUGAAAAUUAAUUUUAAGCAACAGAGGAUUGAGCAUCA
B6: chr14:102378876:102378877:+_ENSG00000078304_ENST00000445439|hu_hu|motif|central (ssRNA)
RNA: GGGAGUUCUACAGUCCGACGAUCAGACAUUUUCAUAUACAACGUUAGUGAAAUCGAGACCCCCCCCAUGGUGAAGACAUAUAUUCCGGUCUUAUAAAAACAUUCAAGUAACCCUGGGCGUUUUCAUGUUAUUCUCUUUUUUAGCAACAGAGGAUUGAGCAUCA
B7: chr8:104447970:104447971:+_ENSG00000164934_ENST00000297579|hu_hu|hu_hu_hu_mus_False|1_48 (ssRNA)
RNA: GGGAGUUCUACAGUCCGACGAUCAUACACUUCCCUGCUUCGGCUCUUGUCCACAGGAAAGAUUCUAAUAGACUUAUCAAAGCUGGCAGACACAAACUCCUUCCCAGUGGGAGAGUAGUCCACAUCAAGUACUGCAGAUACAUGCAACAGAGGAUUGAGCAUCA
B8: 120933971_120934290_173_CDS_ENSG00000088986_ENST00000242577|human|control|control (ssRNA)
RNA: GGGAGUUCUACAGUCCGACGAUCCACCGAGUCCUGUUGCAUCUCUUCCGACAUGUCCGCAUUUUUGAUCACGGCCUUUCGGUCGCACAUGGUUACCGUGGAGAAGGGGGCUGGCCGACUGCAACGGUCUCCUGGGGGAGGUGCCAACAGAGGAUUGAGCAUCA
B9: chr5:111714535:111714536:+_ENSMUSG00000033209_ENSMUST00000156290|mus_mus|FALSE|FALSE (ssRNA)
RNA: GGGAGUUCUACAGUCCGACGAUCGUCUGAGCUUGCCAGUUUCCCCACUUUCUGGAAGGGUGAGUUUGGGCUGGGGAUCAGGGUCAUCUUCACGGGGGAGUUGGGAGUGCUGACGCUUCCCUUAGAGCUGACUGAAAGCCUCACCAACAGAGGAUUGAGCAUCA
B10: chr4:117558906:117558907:-_ENSMUSG00000033379_ENSMUST00000036380|mus_mus|FALSE|FALSE (ssRNA)
RNA: GGGAGUUCUACAGUCCGACGAUCGGAUGAGCCGGUUAUAUAGAUUCCCCAGGCUGCUCCAACCACAGACAGAGAAAUUGCUAGGCCAAUGCCCAGAUUCGACCACAUGAAGGGGGAAGUUUCCGUCAGGAACCAUGCCACAUCCAACAGAGGAUUGAGCAUCA
B11: chr5:135508174:135508175:+_ENSG00000113658_ENST00000545279|hu_hu|motif|central (ssRNA)
RNA: GGGAGUUCUACAGUCCGACGAUCACUAGUAGAAGAUGCAUGAAAAGCUUCUCCAACACGAUUGUUUAAUUCAUAGUAGACGGUUGAACACCAAUGUUUAGGCUCUUCAUAGGCAACAGGCUGAACAUCCCUGCUGGAUAUACUCAACAGAGGAUUGAGCAUCA
B12: chr10:88199856:88199857:+_ENSMUSG00000060904_ENSMUST00000116234|mus_mus|FALSE|FALSE (ssRNA)
RNA: GGGAGUUCUACAGUCCGACGAUCUGCAUCUGUGUUUGAAUAAUAACAUCUCCAGUAUGGCCUGAUACUUGUCUGUCCUCCUAAGUCCCAAACUUGGAAUUUGAGAUUUUUGUAUGUCACCGUCUCCACAUUAAAUCCAAUAGUCAACAGAGGAUUGAGCAUCA
B13: 81087466_81087586_1854_3pUTR_ENSMUSG00000025789_ENSMUST00000026896|mouse|control|control (ssRNA)
RNA: GGGAGUUCUACAGUCCGACGAUCGUCCUUUGGGCAGCUGCACUCUCAAGUUCAUGAACAAAGCCCUCAGCUCCGUUGUGAUCAGUGCUGCUUGCUCUCCUUGUGCCUCUUUGCCCAAUGGAAUUUUCCAAGUCUCUCCUCCAUCAACAGAGGAUUGAGCAUCA
B14: chr8:42711381:42711382:-_ENSG00000120925_ENST00000527424|hu_hu|motif|central (ssRNA)
RNA: GGGAGUUCUACAGUCCGACGAUCCACUUCUCGAUACAUAAUAGAGAUGUAGAUAAGCAAUAAAAAGAUGACAAAGAAAUCAUCGGGAAAGCCUAGAAUUCCAAACAAGGCUUCAGGUACAAAAUCUAGAGGUGAUAUAAGAUACAACAGAGGAUUGAGCAUCA
B15: chr16:16926518:16926519:+_ENSMUSG00000026181_ENSMUST00000027373|mus_mus|motif|central (ssRNA)
RNA: GGGAGUUCUACAGUCCGACGAUCGAGGGGGACUUGAGCUCACAGCCACCCUUCUCCCUGUUCCUUCCCUGAGCCUCGGCGGAGCCACCCAUUAUCCUGGCUAGGGGAUUCUUUUGGGAAGAGACUCUGAGGAGGAGGUGGCCACAACAGAGGAUUGAGCAUCA
B16: 67690123_67705373_131_CDS_ENSMUSG00000024533_ENSMUST00000115050|mouse|control|control (ssRNA)
RNA: GGGAGUUCUACAGUCCGACGAUCAAUCUUCUUAAGGUUCUCCUUUGCACUCUUAAUUUUGGUCAGAAAUGUAUGCAGUUCCAUGGUUUCUGCGAACAGGGCCCGACAUACUGCCUGAUAAUGAUUGGGUGCCUCCGACUCAGUCAACAGAGGAUUGAGCAUCA
B17: chr2:172803269:172803270:+_ENSG00000128708_ENST00000264108|hu_mus|FALSE|FALSE (ssRNA)
RNA: GGGAGUUCUACAGUCCGACGAUCGAAAGCAGUUUCAUCAUCCCCAAAGAGCUGAUGGGUAUAUUCAGGAAAGAAAGUUCUAAUGUCAUUCUCAAGAUCUUCAGGAAAACGAACUAGUUUCAGCUCGAUUGCUGUGUUGGUGUUCAACAGAGGAUUGAGCAUCA
B18: chr10:61154807:61154808:+_ENSMUSG00000020088_ENSMUST00000020285|mus_hu|motif|central (ssRNA)
RNA: GGGAGUUCUACAGUCCGACGAUCCAACUCUUUUAUGAGGUCAAAGUCACUUUUGAUAACUGAAAACGAAAAAGGAAGGUGCGGUAGAGAGAAAUUAAAUUUCACAAAAGUAUAAAAGCAAAGACUGGCUAAAAUCUGUAACUUCAACAGAGGAUUGAGCAUCA
B19: chr12:88510985:88510986:-_ENSMUSG00000034111_ENSMUST00000037418|mus_hu|FALSE|FALSE (ssRNA)
RNA: GGGAGUUCUACAGUCCGACGAUCACUGUCUCUUAGAAUUUGCUGGGCUGUGGGUUCUCAGUAAUUACCUGUGCUUCAGUAAGUAGUAUCUUGCCCCUAAAGUUCAAUUAUUUCAGAAAUGUAACAUGAAAAUAGUGAAUUAGACAACAGAGGAUUGAGCAUCA
B20: chr2:15737528:15737529:+_ENSG00000079785_ENST00000233084|hu_hu|motif|central (ssRNA)
RNA: GGGAGUUCUACAGUCCGACGAUCUUUAAUUGUUGUUUUUCCUUUUUUGCCUUCCUGUUGGUCUUUCAGAGUUUCAUAAACGGUCUGGAUAACUGGAAUACUAAAAGCACCAGUUUUGCCACUUCCUGUUUCUGCAGCCAUAAGCAACAGAGGAUUGAGCAUCA
B21: chr11:70266916:70266917:+_ENSMUSG00000018923_ENSMUST00000019067|mus_mus|FALSE|FALSE (ssRNA)
RNA: GGGAGUUCUACAGUCCGACGAUCAGGAAGUGGGUUGGGAGUUGACCUCUGACCUCUGUCUGAUCUUGCAUAGUGGAAAACAGGGCCGUCUUGCUGGAAGAGUCAGAAGAGAUGUGUGUACACUGGGGCUUUGGAUUCUUCAGUCAACAGAGGAUUGAGCAUCA
B22: 60642699_60642819_4119_CDS_ENSG00000081913_ENST00000262719|human|control|control (ssRNA)
RNA: GGGAGUUCUACAGUCCGACGAUCCUCUUCUUCACAGCUCAUGAUGUAAGAUCUGGACAGAGGCAGCGGCUUUCCAUUUCGACAGAGAACUGUUUGGCACUUGCCCACAUUAGCAGAGGUCAAGGUGAAGGAUCCUCCUGGAUCCAACAGAGGAUUGAGCAUCA

Each binder was assayed against T1, UNK ZnF1-3 (human, UniProt Q9C0B0 31-174) (assay: nsRBNS (natural sequence RNA bind-n-seq); RBNS binding buffer (assumed for nsRBNS): 25 mM Tris pH 7.5, 150 mM KCl, 3 mM MgCl2, 0.01% Triton X-100, 500 ug/ml BSA, 20 U/ml SUPERase-In, 4 C; UNK is unkempt and MSI1 is Musashi-1; names of the RNAs are library labels; protein concentration not given here; high values mean tight binding).
T1 sequence: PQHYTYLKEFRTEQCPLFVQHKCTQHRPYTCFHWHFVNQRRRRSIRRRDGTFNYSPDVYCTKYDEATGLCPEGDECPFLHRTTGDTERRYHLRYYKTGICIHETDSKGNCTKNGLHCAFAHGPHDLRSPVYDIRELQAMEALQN

Row | Binder | binding signal
1 | B1 | 1.46 enrichment R
2 | B2 | 0.979 enrichment R
3 | B3 | 2.21 enrichment R
4 | B4 | 0.423 enrichment R
5 | B5 | 0.814 enrichment R
6 | B6 | 1.33 enrichment R
7 | B7 | 0.878 enrichment R
8 | B8 | 1.08 enrichment R
9 | B9 | 1.78 enrichment R
10 | B10 | 2.48 enrichment R
11 | B11 | 1.85 enrichment R
12 | B12 | 0.806 enrichment R
13 | B13 | 0.545 enrichment R
14 | B14 | 1.8 enrichment R
15 | B15 | 0.658 enrichment R
16 | B16 | 0.556 enrichment R
17 | B17 | 0.913 enrichment R
18 | B18 | 1.95 enrichment R
19 | B19 | 0.946 enrichment R
20 | B20 | 0.664 enrichment R
21 | B21 | 0.975 enrichment R
22 | B22 | 1.65 enrichment R

Reference: PMC12136788
